# The supplement of paper PMC10126150
# Sequences with one replicate were seen in a single cluster, so their values are uncertain.
# Tested on: ATP
# Assay: switch fluorescence ratio, 500 uM ATP over buffer (Cy3 cluster intensity, sum of 5 cycles each) (fold (ratio)); higher = stronger signal-on switching upon ATP binding; sequences stand for … in TCGTCGGCAGCGTCAGATGTGTATAAGAGACAGTTTTTTTTTTTTTTTTTTTTTTTTT…TC
# Settings: aptamer strand: ATP DNA aptamer (quencher-CACCTGGGGGAGTATTGCGGAGGAAGG + anchor), 100 nM annealed; ATP concentration: 500 uM; one replicate
# Procedure, shortened: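 Exposure to 500 uM ATP lasted 15 min at 22 °C before imaging, and a selection-buffer image was taken beforehand, for Cy3-labelled switching-strand clusters on a modified Illumina MiSeq flow-cell annealed to 100 nM quencher-labelled ATP aptamer. Five buffer/ATP cycles were run with NaOH stripping and re-annealing between them. The fluorescence ratio per cluster is summed target-cycle over summed buffer-cycle Cy3 intensity, averaged per switch-domain sequence. Clusters outside 100-1000 RFU were excluded.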
row,Sequence,switch fluorescence ratio
1,GGTGGACTAC,1.02
2,TACGCCTTGT,0.969
3,GGTGTCTATA,0.996
4,ATCATTCCCA,0.995
5,ATTGGGGGG,1.03
6,CTCATCGCGC,1.36
7,TCGCTTAGCC,1.05
8,GGAAGTTATC,0.995
9,GTTTGAGTAC,1.01
10,TTTCATGCCT,1.03
11,TATAGGTGTA,1.05
12,ACTCAGCCCA,1.23
13,CCTGGGCTTT,1.02
14,TTCATTCTAA,0.993
15,AGACTTGGTA,0.948
16,GGAAGCTATT,1.02
17,GCTGGGGAGT,1.02
18,CAAGGTAGAT,0.981
19,ATACGACTTG,0.99
20,CGCATAATCT,2.17
21,CGTCTTGCTG,0.973
22,CTCTCGTCTT,0.989
23,ACGACAACTT,1.3

row,Sequence,switch fluorescence ratio
1,GCAATGATTC,1.32
2,TAGTACCAGT,1.04
3,TTTGCCGTTT,0.992
4,TTAGTAACAA,0.972
5,TGATGCGCGG,1
6,AGGGAGTCGT,1.11
7,AAAGTGGCGG,0.983
8,GGGGCATGG,1.05
9,CGGTTACCTT,0.991
10,GAAATGTGGG,0.983
11,ATAAGGCAGT,1
12,ATCTGTTTAC,0.992
13,CCTTAAGAAC,1.23
14,TTCGCGATCT,1.68
15,GAGGTAGGCA,1
16,GGGAGGTCGC,0.984
17,ATCGACAGGG,0.975
18,TTGTAGCGG,1.09
19,TGGAGAGTAT,0.941
20,TTAGTGCAGT,1.05
21,GTACGGAGCT,1.37
22,GGATGTGCGG,0.993
23,GAGCCGTTC,1.02

row,Sequence,switch fluorescence ratio
1,CCAAAACTTG,1.02
2,TGACTTCCGT,1.13
3,GGGCTATACG,1.07
4,GTATAGGAGG,0.979
5,AAACTGCCAA,1.06
6,TACCGCTGG,1.03
7,TGAGGCGATG,1.04
8,GATAAATAGA,0.99
9,ACGCCTAATC,1.15
10,TCAATTTAGT,0.988
11,CGCGGCGAGA,1.01
12,AGTGGATGAA,0.972
13,CCAAGAGAGC,1.02
14,CGTAGGTATT,0.99
15,TTCTAATACT,1.12
16,ATGGTCGTCC,0.999
17,CGTAGCCATT,1.01
18,TGAAAGCTCC,1.55
19,CTTTAAAGTG,0.976
20,TAATGGTACT,1.09
21,GAGTCTCATT,0.989
22,AAGACCGTAT,1.18
23,ATCGTATACG,1.08

row,Sequence,switch fluorescence ratio
1,CATAAAAAGC,0.991
2,GTAATGCTAA,0.981
3,ATACTCTATC,1.05
4,ACCCGGGCAT,1.09
5,TTCAACATGA,1.03
6,CAGACTAGAA,0.996
7,GGGACAATAG,1.02
8,GCTCAGAGGG,1
9,CGAGAACGTT,0.993
10,GAAAAGACCG,1.02
11,AAAAGGTGGC,1.01
12,TCCACCAAAG,1.11
13,GACGTGCGCT,1.11
14,GAGCTAATAG,1.97
15,ACCTTGATAC,1.5
16,ACCGATATTT,0.989
17,TACAAATCTC,0.984
18,AGCCAGTTAG,0.981
19,CGTTATGG,0.962
20,AAGGGCATGC,0.997
21,AATGAGATAT,1.01
22,TTGAACCTGA,1.49
23,CCTGACGGGA,0.965

row,Sequence,switch fluorescence ratio
1,AGATGGGATC,1.04
2,GGGCTGTCGA,1.03
3,TTAATCCCCA,1.06
4,GACTGCGCTT,1.49
5,CCGTCGAAGC,1.16
6,ATAATTCTCC,1.05
7,TTAGCGATAA,2.33
8,AACATCTCTG,1.05
9,ATATCATGCT,0.968
10,TGCTAGTAAA,1.02
11,CGTCTCTGCT,1.04
12,TCCGGGTTAG,1.07
13,TTGAATAGGT,0.955
14,TAGCTGGCCG,1.06
15,TACTAAAGGT,1.19
16,TATATACTAG,1
17,GGGTAAGCAC,1.18
18,TTCTATTCAT,1.01
19,ACTTGCGAAT,1.01
20,TCGCTGGTCG,1.01
21,TACTTGGGTA,0.99
22,AGCTTGGATG,0.973
23,TGTAATGTCA,0.975

row,Sequence,switch fluorescence ratio
1,ACGAAACAAA,0.982
2,TCACACCCAG,1.4
3,TCGGATACG,1
4,CAGGGTGCA,1.05
5,TGCACAGAGC,0.962
6,AGGTGCGTGC,1.01
7,TCATTGTTCA,0.958
8,ATGCCCGGGA,0.978
9,CACTGGTCCG,1.1
10,GGATGTAAAA,1
11,CATGTATCGG,1.02
12,ATATGTAATG,0.999
13,TTTCTGATCA,0.978
14,GAGGAGTTAC,1.04
15,AATATGGTAA,0.987
16,TTATGGCTTA,0.963
17,TAGTCAATTT,1.03
18,TAGATATCAA,1.01
19,CGCGGATTGC,1.24
20,TAGCGGATAG,1.05
21,TACCATGAAC,1.12
22,GTCGCCTTC,1.05
23,TTTTTCACC,1.04

row,Sequence,switch fluorescence ratio
1,TGCGTTTAGA,1.02
2,ATGGGGCGCA,0.981
3,AGGATACCAT,1.01
4,ACCCAATTGG,0.992
5,TGGCGGAGGC,0.979
6,AGGGGGATGA,1.01
7,CGCAGTAAAA,1.08
8,CACAGAGTTG,1.02
9,GAATAAGAAG,1
10,CTGTTAAAA,1.01
11,GAATCTATGC,1.04
12,CAGCGCATTG,1.21
13,ACCTCTTGG,1.03
14,GGGGTGCAAA,0.969
15,TTGTTTCG,0.957
16,TGTGCCGTAT,1.05
17,AAATCACAGA,1.05
18,CCAACGTCCA,1.36
19,TAGTTAATGT,1.05
